According to PubChem BioAssay AID1508623 (National Center for Advancing Translational Sciences (NCATS), 2021):
Out of some 48,000 compounds screened, about 450 (0.94%) were called active. Inconclusive results (about 19%) are left out. Calls come from the whole dose curve; as a rule, active = well fitted inhibition curve with a large enough effect; inconclusive = small, poorly fitted or top-dose-only effect; inactive = no such curve, though single readings can be large or run the other way. The list shows a part of the results.

test: Primary qHTS for Identification of Small Molecule Inhibitors of Huntingtin Promoter Activity; settings: HEK293 HTT promoter firefly luciferase reporter (activity 0% = vehicle and -100% = no light), 24 h; series mostly up to 57.5 µM; activity change, negative = inhibition: at the top concentration; note: nearly all actives have a fitted effect of over 50% in size
Outline: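 Quantitative HTS used concentration series of up to 57.5 uM final on HEK293 luciferase reporter cells, 24 h at 37 degrees C. Readout was Dual-Glo firefly luminescence.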

Activity change, negative = inhibition, inactive:
COc1ccc(C(=O)NCC(c2ccc3c(c2)OCO3)N2CCN(C)CC2)cc1OC (stereo not given) -3.93%
CCOC(=O)c1c(C)[nH]c(C)c1S(=O)(=O)N1CCC(C(=O)Nc2ccc(OC)c(OC)c2)CC1 -10.6%
CCN1CCN(c2ncnc3c2cnn3-c2ccc(F)cc2)CC1 57.4%
COc1ccc(CC(=O)Nc2ccc(-c3nc4ccccc4s3)c(C)c2)cc1 31.7%
CC(C)c1nc2sc3c(N4CCCCC4)ncnc3c2c2c1CCCC2 -1.22%
CCOc1ccc(-n2c(SCC(=O)c3ccccc3)nc3c([nH]c4ccccc43)c2=O)cc1 -5.26%
COC(=O)c1ccc(CSc2nc3ccncc3n2Cc2ccc(F)cc2)cc1 -9.77%
COCC(C)Nc1ncnc2c1cnn2-c1cccc(Cl)c1 (stereo not given) 18%
COc1ccc(C(=O)Oc2ccc(C3NC(=O)c4c(sc5c4CCN(C)C5)N3)cc2OC)cc1 (stereo not given) 8.85%
Cc1cccc(Cc2c(C)nc3nc(SCc4cccc(F)c4)nn3c2C)c1 -25.6%
O=S(=O)(c1ccccc1)c1nnn2c1nc(NC1CCCCCC1)c1sccc12 -1.8%
CCOc1ccc(CCNC(=O)CN2C(=O)COc3ccc(S(=O)(=O)N(CC)CC)cc32)cc1 -24.6%
Cc1ccc(Cn2ccnc2SCC(=O)NC2CCCC2)cc1 -19.5%
COc1cc(S(=O)(=O)n2ccnc2C(C)C)ccc1Br -14%
COc1ccc2c(CNCc3ccco3)c(C(=O)O)n(Cc3ccccc3)c2c1 -20.5%
C=CCOc1ccccc1OCC(O)CNC(C)C (stereo not given) 6.44%
COc1ccc(N2CCN(C(=O)c3c4c(nc5ccccc35)C(=O)N(C3CCCCC3)C4)CC2)cc1 -10.1%
O=C(Nc1ccc2nc(SCC(=O)N3CCCC3)sc2c1)c1cccc(F)c1 -7.02%
CCc1ccc(-n2c(=O)c3ccc(C(=O)NCCc4ccccc4)cc3n(Cc3ccccc3C#N)c2=O)cc1 -11.7%
COc1ccc(-c2nc3ccccc3o2)cc1NC(=O)c1ccc(OCC(C)C)cc1 5.39%
COc1ccc(-c2nnc(SCC(=O)c3ccc(NC(C)=O)cc3)o2)cc1OC 1.94%
COC(=O)c1c(-c2cccs2)csc1NC(=O)c1ccc(C(C)(C)C)cc1 -12.6%
CCOC(=O)c1c(-c2ccc(C)cc2C)csc1NC(=O)c1ccccc1Cl -6.6%
NC(=O)C1CCN(C(=O)c2ccc3c(c2)N(Cc2cccc(Cl)c2)C(=O)c2ccccc2S3(=O)=O)CC1 -22.2%
Cc1ccc2c(=O)cc(C(=O)Nc3c(C(=O)c4ccccc4)oc4ccccc34)oc2c1 4.18%
CCOc1ccc(NS(=O)(=O)c2ccc3[nH]cc(C(=O)N(C)C4CCCCC4)c(=O)c3c2)cc1 3.55%
O=C(NCCCN1CCCCC1)c1ccc2c(c1)sc1nc(-c3ccc(F)cc3)cn12 -8.53%
COCCNC(=O)Cn1cc2c(n1)-c1c(oc(C(=O)N3CCCC3)c1C)CC2 0.14%
NC(=O)Cn1c(=O)n(CCCCCC(=O)NCc2ccccc2Cl)c(=O)c2sccc21 -4.72%
O=C(O)c1ccc[n+]([O-])c1 2.84%
COC(=O)c1c(-c2cccs2)csc1NC(=O)COc1ccccc1 42.7%
CC(CNC(=O)c1ccc(Nc2nc3ccccc3n3nnnc23)cc1)c1ccccc1 (stereo not given) 12.5%
COc1ccc(OC(=O)CSc2nnc(-c3ccc(F)cc3)o2)cc1 2.75%
CCCn1c2ccccc2c2cnn(CC(=O)NC(C)CC)c(=O)c21 (stereo not given) -15%
CCC(=O)N1CCN(c2nc3c(C)cccc3s2)CC1 24.3%
Cc1ccc([N+](=O)[O-])c(Oc2ncnc3c2oc2ccccc23)c1 -19.3%
Cc1ccc(NC(=O)CCCN2C(=O)COc3ccc(C)cc32)c(C)c1 -11.3%
Cc1c(N)c(=O)n(-c2ccccc2)n1C -6.07%
COc1ccc2c(Sc3ccccc3)c(C(=O)N3CCC(C)CC3)[nH]c2c1 7.85%
Cc1ccc(CNC(=O)CN2C(=O)CSc3ccc(S(=O)(=O)N4CCCC4)cc32)cc1 -6.39%
CCc1ccc(C(=O)CSc2nc(-c3ccccc3)nc3c2CCCC3)cc1 -8.29%
COc1ccc2nc3sc(C(=O)N4CCN(c5ccc(F)cc5)CC4)cc3cc2c1 2.26%
COc1ccc(CNS(=O)(=O)c2ccc(F)c(C(=O)Nc3c(C)cc(C)cc3C)c2)cc1 -24.6%
CCOC(=O)c1cc(-c2ccc(OC)cc2)n(CCC(=O)Nc2cccc(C(C)=O)c2)c1C -19.3%
Cc1cc2oc(C(=O)Nc3sc4c(c3C(=O)NCc3ccccc3)CCCC4)cc(=O)c2cc1C -13.2%
CN(C)c1ccc(CNC(=O)CN2C(=O)CCn3nc(-c4cn(C)c5ccccc45)cc32)cc1 -4.04%
COc1cccc(-c2nc3c(c(SCc4ccccc4Cl)n2)Cc2c(CO)cnc(C)c2O3)c1 -11.8%
CCCN(CCC)C(=O)C1CCCN(c2ncnc3onc(-c4ccc(F)cc4)c23)C1 (stereo not given) 1.15%
CCC(C)NC(=O)CSc1nnc(-c2ccc(C)cc2)c(-c2ccc(C)cc2)n1 (stereo not given) -25.7%
COc1cccc(CNC(=O)C2CCN(C(=O)c3sccc3-n3cccc3)CC2)c1 -19.4%
O=C(NCCCO)C(=O)Nc1c2c(nn1-c1ccccc1)CSC2 -14.2%
CCCN(CCC)C(=O)c1cn(CC)c2ccc(S(=O)(=O)N3CCCCC3)cc2c1=O 1.91%
CCC(CC)C(=O)NCc1nc2cccnc2n1Cc1ccc(F)cc1 -2.32%
O=C(CN1C(=O)C2(SCC(=O)N2c2ccccc2)c2ccccc21)NCCc1ccccc1 (stereo not given) -18.4%
Cc1cn2c(=O)cc(COC(=O)c3ccccc3F)nc2s1 -11.5%
Cc1ccc(C(=O)Nc2ccccc2C(=O)OCc2cc(=O)n3nc(C4CC4)sc3n2)cc1 2.96%
CCOc1ccc(-c2nnc(SCC(=O)c3ccc(F)cc3)n2-c2ccccc2)cc1 -24.1%
Cc1cc(C)cc(NC(=O)CCCc2nnc3n(CC(C)C)c(=O)c4sccc4n23)c1 -9.59%
CCN(CC)CCCNC(=O)C(=O)Nc1ccc2nc3n(c(=O)c2c1)CCCCC3 10.3%
Cc1ccc(Cn2ccnc2SCC(=O)Nc2ccc3c(c2)OCCO3)cc1 7.05%
COc1ccc(/C=C/C(=O)Nc2ccc(Cl)cc2Cl)cc1 -12.6% [at 11.5 µM]
Cc1ccc(NC(=O)Cn2cc(C(=O)c3ccco3)c3ccccc32)c(C)c1 -22.1%
CCOc1cc(C2CC(=O)Nc3c2c(=O)nc(SCc2cccc(Cl)c2)n3C)ccc1O (stereo not given) -0.835%
Cc1ccccc1CNC(=O)c1cc2cccc3c2n1CC(C)S3 (stereo not given) -28.1%
CCOc1ccc(OCC)c(-n2cnnn2)c1 -7.19%
Cc1c(NC(=O)Nc2ccc(Cl)c(C(F)(F)F)c2)c(=O)n(-c2ccccc2)n1C -17.6%
Fc1ccccc1N1CCN(c2ncnc3onc(-c4cccc(Cl)c4)c23)CC1 -28.8%
COc1cccc(OCc2cc(=O)n3cc(C)sc3n2)c1 35%
Cc1cccn2c(=O)cc(COc3ccc(NC(=O)C(C)Oc4ccccc4)cc3)nc12 (stereo not given) -24.8%
Cn1c(=O)c2c(-c3ccccc3Br)n(Cc3ccccc3)cc2n(C)c1=O -6.41%
NS(=O)(=O)c1ccc(NC(=O)CN2CCN(c3ccc(F)cc3)CC2)cc1 -29.2%
COc1ccc(-n2c(SCC(=O)NC3CCCCC3)nc3c([nH]c4ccccc43)c2=O)cc1 6.12%
COc1ccc(-c2cc3c(=O)n(CC(=O)Nc4cc(C)ccc4C)ccn3n2)cc1 16.3%
Cc1ccc(Cl)cc1-n1ncc2c(NCCC3=CCCCC3)ncnc21 -33.3%
CC1CC(=O)N(CC(=O)Nc2ccc(F)cc2F)c2ccccc2S1 (stereo not given) -10.7%
Cc1c(-c2ccccc2)c(=O)oc2c(CN3CCCC3)c(O)ccc12 -1.09%
CCc1ccc(C2CC(=O)NC(NC(=O)c3ccc(C(C)(C)C)cc3)=N2)cc1 (stereo not given) 6.71%
CCOc1ccc(/C=C/c2nc(C#N)c(Nc3ccc(OCC)cc3)o2)cc1 0.139%
COc1ccc(NC(=O)Nc2cccc(-c3cn4cccnc4n3)c2)cc1 25.1%
O=C(NCCc1ccc(Cl)cc1)c1ccc2c(c1)N(Cc1ccccc1F)C(=O)c1ccccc1S2(=O)=O 9.68%
CCOc1ccc(NC(=O)Cn2c(=O)n(Cc3ccc(C(=O)NCc4ccc(C)cc4)cc3)c(=O)c3ccccc32)cc1 -0.57%
CC=CC[C@@H](C)C(=O)[C@H]1C(=O)N[C@@H](C(C)C)C(=O)N(C)CC(=O)N(C)[C@@H](CC(C)C)C(=O)N[C@@H](C(C)C)C(=O)N(C)[C@@H](CC(C)C)C(=O)N[C@@H](C)C(=O)N[C@H](C)C(=O)N(C)[C@@H](CC(C)C)C(=O)N(C)[C@@H](CC(C)C)C(=O)N(C)[C@@H](C(C)C)C(=O)N1C 16.1%
COc1cccc(CNC(=O)CN2C(=O)COc3ccc(S(=O)(=O)N4CCCCCC4)cc32)c1 -25.4%
CCc1cccc(NC(=O)Cn2c(=O)n(CCC(=O)NCC3CCCO3)c(=O)c3cc(OC)c(OC)cc32)c1 (stereo not given) -7.7%
Cc1ccc(-c2nc3ncccc3o2)cc1NC(=O)c1ccccc1Br 7.03%
Cc1ccc(CNC(=O)c2cc3c(s2)-c2ccc(Cl)cc2SC3)cc1 -11.7%
CN(C)c1ccc(NC(=O)CN2CCN(CC(=O)Nc3ccc(Br)cc3)CC2)cc1 -5.25%
Cc1ccc(CSC2=Nc3ccccc3C3=NC(CC(=O)NCc4cccs4)C(=O)N23)cc1 (stereo not given) 4.36%
COc1ccc(C(=O)Nc2nnc(S(=O)(=O)N3CCC(C)CC3)s2)cc1OC -7.84%
CCN(C(=O)C1CCCN(c2ncnc3onc(-c4ccc(F)cc4)c23)C1)c1ccccc1 (stereo not given) -4.68%
CCOc1ccc(NC(=O)NCCn2nnc3cc(S(=O)(=O)N(C)C)ccc32)cc1 -13%
CC(C)(C)c1ccc(-c2nc(S(=O)(=O)c3ccccc3)c(N3CCOCC3)o2)cc1 -14.6%
CC1CCCCN1Cc1c(O)ccc2c(=O)c(-c3ccccc3)coc12 (stereo not given) -3.07%
Cc1ccc(CNC(=O)c2sc3nc(-c4ccc(F)cc4)ccc3c2N)cc1 -5.89%
CCOC(=O)C1=C(CN2CCCCC2)NC(=O)NC1c1ccc(C)cc1 (stereo not given) -5.48%
